{"source": "the supplement of paper PMC4604168 (melanoma cell lines)", "note": "The list shows a part of the results. Single values are uncertain, as repeats are few or missing.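 Note: cell number obtained by counting DAPI-stained nuclei in high-throughput microscope images with image analysis software, screen run in 1,536-well plates.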"}
{"tested_on": "501Mel", "assay": "cell count relative to DMSO control; melanoma cells; higher = more viable cells", "conditions": "library dose: low library concentration; 72 h", "units": {"cell count": "%"}}
{"compound": "Cc1cn(-c2cc(NC(=O)c3ccc(C)c(Nc4nccc(-c5cccnc5)n4)c3)cc(C(F)(F)F)c2)cn1", "note": "[nilotinib] + C[C@]1(O)C[C@@H](c2nc(-c3ccc4ccc(-c5ccccc5)nc4c3)c3c(N)nccn32)C1 [OSI906] (first compound 0.2 µM, partner dose 0.4 µM)", "cell count": 75.1}
{"compound": "CC(C)C[C@H](NC(=O)[C@H](Cc1ccccc1)NC(=O)c1cnccn1)B(O)O", "note": "[Bortezomib] + Nc1nc(F)nc2c1ncn2[C@@H]1O[C@H](CO)[C@@H](O)[C@@H]1O [fludarabine] (first compound 0.001 µM, partner dose 0.2 µM)", "cell count": 0.893}
{"compound": "COc1ccc(C2=N[C@@H](c3ccc(Cl)cc3)[C@@H](c3ccc(Cl)cc3)N2C(=O)N2CCNC(=O)C2)c(OC(C)C)c1", "note": "[Nutlin-3] + CNC(=O)c1cc(Oc2ccc(NC(=O)Nc3ccc(Cl)c(C(F)(F)F)c3)cc2)ccn1 [sorafenib] (first compound 0.1 µM, partner dose 0.4 µM)", "cell count": 135}
{"compound": "COc1ccc(C2=N[C@@H](c3ccc(Cl)cc3)[C@@H](c3ccc(Cl)cc3)N2C(=O)N2CCNC(=O)C2)c(OC(C)C)c1", "note": "[Nutlin-3] + COCC[n+]1c2c(n(Cc3cnccn3)c1C)C(=O)c1ccccc1C2=O [YM155] (first compound 0.1 µM, partner dose 0.0004 µM)", "cell count": 86.6}
{"compound": "COc1ccc(C2=N[C@@H](c3ccc(Cl)cc3)[C@@H](c3ccc(Cl)cc3)N2C(=O)N2CCNC(=O)C2)c(OC(C)C)c1", "note": "[Nutlin-3] + Nc1nc(F)nc2c1ncn2[C@@H]1O[C@H](CO)[C@@H](O)[C@@H]1O [fludarabine] (first compound 0.1 µM, partner dose 0.2 µM)", "cell count": 0.589}
{"compound": "COc1ccc(C2=N[C@@H](c3ccc(Cl)cc3)[C@@H](c3ccc(Cl)cc3)N2C(=O)N2CCNC(=O)C2)c(OC(C)C)c1", "note": "[Nutlin-3] + CC(C)C[C@H](NC(=O)[C@H](Cc1ccccc1)NC(=O)c1cnccn1)B(O)O [Bortezomib] (first compound 0.1 µM, partner dose 0.001 µM)", "cell count": 79.8}
{"compound": "CC(C)C[C@H](NC(=O)[C@H](Cc1ccccc1)NC(=O)c1cnccn1)B(O)O", "note": "[Bortezomib] + CNC(=O)c1cc(Oc2ccc(NC(=O)Nc3ccc(Cl)c(C(F)(F)F)c3)cc2)ccn1 [sorafenib] (first compound 0.001 µM, partner dose 0.4 µM)", "cell count": 17.1}
{"compound": "Cc1cc(Nc2cc(N3CCN(C)CC3)nc(/C=C/c3ccccc3)n2)n[nH]1", "note": "+ Nc1ccn([C@@H]2O[C@H](CO)[C@@H](O)C2(F)F)c(=O)n1 [gemcitabine] (first compound 0.04 µM, partner dose 0.0004 µM)", "cell count": 120}
{"compound": "CC(C)C[C@H](NC(=O)[C@H](Cc1ccccc1)NC(=O)c1cnccn1)B(O)O", "note": "[Bortezomib] + Cc1nc(Nc2ncc(C(=O)Nc3c(C)cccc3Cl)s2)cc(N2CCN(CCO)CC2)n1 [dasatanib] (first compound 0.001 µM, partner dose 0.004 µM)", "cell count": 17.2}
{"compound": "COc1ccc(C2=N[C@@H](c3ccc(Cl)cc3)[C@@H](c3ccc(Cl)cc3)N2C(=O)N2CCNC(=O)C2)c(OC(C)C)c1", "note": "[Nutlin-3] + C[C@@H](Oc1cc(-c2cnn(C3CCNCC3)c2)cnc1N)c1c(Cl)ccc(F)c1Cl [Crizotinib] (first compound 0.1 µM, partner dose 0.2 µM)", "cell count": 39.4}
{"compound": "COc1ccc(C2=N[C@@H](c3ccc(Cl)cc3)[C@@H](c3ccc(Cl)cc3)N2C(=O)N2CCNC(=O)C2)c(OC(C)C)c1", "note": "[Nutlin-3] + OCc1c[nH]c2ccccc12 [Indole-3-carbinol] (first compound 0.1 µM, partner dose 0.8 µM)", "cell count": 123}
{"compound": "COc1ccc(C2=N[C@@H](c3ccc(Cl)cc3)[C@@H](c3ccc(Cl)cc3)N2C(=O)N2CCNC(=O)C2)c(OC(C)C)c1", "note": "[Nutlin-3] + CS(=O)(=O)CCNCc1ccc(-c2ccc3ncnc(Nc4ccc(OCc5cccc(F)c5)c(Cl)c4)c3c2)o1 [lapatinib] (first compound 0.1 µM, partner dose 0.8 µM)", "cell count": 86.1}
{"compound": "Cc1cn(-c2cc(NC(=O)c3ccc(C)c(Nc4nccc(-c5cccnc5)n4)c3)cc(C(F)(F)F)c2)cn1", "note": "[nilotinib] + CC(=O)c1c(C)c2cnc(Nc3ccc(N4CCNCC4)cn3)nc2n(C2CCCC2)c1=O [palbociclib] (first compound 0.2 µM, partner dose 0.04 µM)", "cell count": 81.3}
